Source: PubChem BioAssay AID1745853 (National Center for Advancing Translational Sciences (NCATS), 2022)
Some of the results follow. Shown are side measurements of this screen, not its main read-out; they come without a call.

Tests used:
Assay in all cases: Primary Screen for Target Class Profiling of Small Molecule Inhibitors of Methyltransferases
[1] = target: Glycine N-methyltransferase (Homo sapiens) (UniProt Q14749); settings: purified enzyme, MTase-Glo SAH luminescence; measured here: GNMT inhibition; at 40 µM; stronger effect = lower value
Method in brief: (§1)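 Each enzyme was reacted with SAM and its substrate, with compounds tested once at 40 uM; SAH formed was read by MTase-Glo luminescence.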

[2] = target: Guanidinoacetate N-methyltransferase (Homo sapiens) (UniProt Q14353); settings: purified enzyme, MTase-Glo SAH luminescence; measured here: GAMT inhibition; at 40 µM; stronger effect = lower value
Method in brief: as §1

[3] = target: Histamine N-methyltransferase (Homo sapiens) (UniProt P50135); settings: purified enzyme, MTase-Glo SAH luminescence; measured here: HNMT inhibition; at 40 µM; stronger effect = lower value
Method in brief: as §1

[4] = target: Nicotinamide N-methyltransferase (Homo sapiens) (UniProt P40261); settings: purified enzyme, MTase-Glo SAH luminescence; measured here: NNMT inhibition; at 40 µM; stronger effect = lower value
Method in brief: as §1

[5] = target: Phenylethanolamine N-methyltransferase (Homo sapiens) (UniProt P11086); settings: purified enzyme, MTase-Glo SAH luminescence; measured here: PNMT inhibition; at 40 µM; stronger effect = lower value
Method in brief: as §1
On the % scale 0 is the no-effect control and ±100 the full control effect.

SMILES	activity change, negative = inhibition [1] [%]	activity change, negative = inhibition [2] [%]	activity change, negative = inhibition [3] [%]	activity change, negative = inhibition [4] [%]	activity change, negative = inhibition [5] [%]
CCCCN1C(=O)c2cc(C(=O)Nc3ccc(C)cc3C)nn2CC1(C)C(=O)NC1CCCC1 (stereo not given)	7.2	3.19	-7.78	6.95	5.87
C=CCNC(=O)c1cn2c(n1)CN(C(C)=O)CC2	0.5	2.49	2.38	-8.03	14.1
COc1ccccc1CNC(=O)C1(C)Cn2c(cc3ccccc32)C(=O)N1Cc1cccc(C)c1 (stereo not given)	5.07	1.71	8.1	7.03	-0.46
COc1ccc(OC)c(CCN2C(=O)c3cc4sccc4n3CC2(C)C(=O)NC2CCCCC2)c1 (stereo not given)	-2.17	0	0.609	0.489	-1.81
O=C(NCc1nnc2n1CCCC2)[C@H]1CNC[C@H](C(=O)N2CCOCC2)C1	-1.71	-1.46	0.394	-3.49	-0.465
CCCN1C(=O)c2cc(C(=O)NCCc3ccccc3)nn2CC1(C)C(=O)NC1CCCC1 (stereo not given)	5.31	0	-15.1	1.81	2.7
Cc1cccc(NC(=O)N2CCn3nnc(CCC(=O)NC4CC4)c3C2)c1	-2.05	-12.2	-4.7	-4.31	-2.72
CC1CCN(S(=O)(=O)c2ccc3c(c2)oc(=O)n3CC(=O)N2CCN(Cc3ccccc3)CC2)CC1	-8.35	3.26	-2.63	-0.361	-4.8
COC(=O)C1(C)CCC2(C(=O)O)CCC3(C)C(=CCC4C5(C)CC(O)C(OC6OCC(O)C(O)C6O)C(C)(CO)C5CCC43C)C2C1 (stereo not given)	1.46	-1.45	7.31	-13.1	-3.13
COc1ccccc1-c1nc2nccc(-c3cccnc3)n2n1	-12.4	-7.74	-4.92	-17.3	-9.2
CC1(C(=O)NC2CCCC2)Cn2c(cc3ccccc32)C(=O)N1Cc1ccccn1 (stereo not given)	3.64	1.66	6.35	3.61	0.101
CN1CCc2cc3c(cc2C(=O)Cc2cc4c(cc2C1)OCO4)OCO3	3.9	6.24	7.82	-7.16	6.99
CC(C)CCNC(=O)C1c2c(n(C)c3ccccc23)SCC(=O)N1c1ccc(C(C)C)cc1 (stereo not given)	4.37	0	0.34	-7.66	1.59
CC(C)Cn1c(=O)c2ccccc2n2c(CCC(=O)NCCc3c[nH]c4ccccc34)nnc12	-9.39	0	-12	-12.9	1.28
CN1C(=O)c2cc(NC(=O)c3cccc(Br)c3)ccc2N2CCN=C12	-3.81	-0.809	3.88	1.39	-1.2
CN(Cc1ccccc1C(F)(F)F)S(=O)(=O)c1cccc(C(F)(F)F)c1	-3.82	-3.84	-0.766	-11.5	-22.3
CC1CCC(NC(=O)c2ccc3c(=O)nc4c(-c5ccc(Cl)cc5)n[nH]n4c3c2)CC1 (stereo not given)	-4.52	0.516	6.03	8.71	3.81
O=C([C@@H]1C[C@H](F)CN1C(=O)NCc1ccc(OC(F)(F)F)cc1)N1CCCCC1	-1.68	0.536	-0.097	-3.97	-0.415
CC(C)Cn1c(=O)c2ccc(C(=O)NC(C)C)cc2n2c(=O)n(CC(=O)Nc3ccc(Cl)cc3)nc12	-0.329	2.61	4.63	2.69	2.99
CN(C)S(=O)(=O)c1ccc(NC(=S)N2CCC(C(O)(c3ccccc3)c3ccccc3)CC2)cc1	3.92	-9.53	12.5	-24.7	-4.71
CCc1cc2c(cc3n2CC(C)(C(=O)NC2CCC(C)CC2)N(CCCN2CCCCC2)C3=O)s1 (stereo not given)	2.48	3.32	-0.383	-1.79	-1.69
CCN(CC)C(=O)C[C@@H]1c2nc(NC(=O)N3CCOCC3)sc2C[C@@H]2[C@](C)(CO)[C@H](O)CC[C@]21C	-2.42	-1.69	0.104	-3.17	-2.09
CC1(C)C(=O)N2c3ccccc3[C@]3(CC(n4cnc5ccccc5c4=O)C(=O)O3)[C@H]2N1O (stereo not given in full)	2.68	1.73	5.2	-14.4	4.04
CCCn1c(=O)c2cc(Cl)ccc2n2c(SCc3ccccc3C)nnc12	-29.4	0	7.75	-10.1	1.67
Cc1cccc(-c2nc(Cn3c(-c4ccc(F)cc4)nc(C)c(CCO)c3=O)c(C)o2)c1	0.102	1.06	1.2	-1.65	5.18
COC1CCOC2(CCN(S(=O)(=O)c3c(C)noc3C)CC2)C1 (stereo not given)	0.175	-1.58	-0.676	-2.37	-0.91
COCC(=O)N1CCN(C(=O)CSCC(=O)O)C[C@H]1C(=O)N[C@H]1CCCNC1=O	-2.28	-2.54	-1.37	-9.62	8.45
Cc1ccc(C(=O)N2CC(Oc3ccc(F)c(C)c3)C2)cc1	-8.24	1.09	-1.7	-20.6	-4.86
CCCN1C(=O)c2cc3ccccc3n2CC1(C)C(=O)NC1CCCCCC1 (stereo not given)	6.41	6.18	6.19	-0.654	-1.59
O=C(O)C[C@@H]1CCN(C(=O)c2ccc(C(F)(F)F)cc2)C[C@@H]1CCN1CCN(c2ccccn2)CC1	0.484	-0.168	0.867	1.67	-2.22
